# Data reported in PubChem BioAssay AID662 (National Center for Advancing Translational Sciences (NCATS), 2007).
# The campaign covered roughly 71,000 compounds. About 1,800 (2.5%) were called active. The inconclusive results got no clear call from the source; some entries with a clear call stand among them for comparison. Calls follow the shape of the dose curve; as a rule, active = well fitted activation curve with a large enough effect in the signal ratio, with a control signal flat (not every such curve was filed as active); inconclusive = small, poorly fitted or top-dose-only effect, or effect the other way, or a change in a side signal; inactive = flat fitted curve, though single readings scatter; the % refers to the signal ratio. Where the call is inconclusive, the potency comes from a doubtful curve fit.
# Assay: Cell signaling CRE-BLA (Fsk stim); as to activity change, negative = inhibition: % of control where 0% means no effect
# Details: CHO CRE-bla reporter (cAMP response element driving beta-lactamase), forskolin EC10, beta-lactamase ratio; activity change, negative = inhibition: at 38.2 µM (top of the series) unless noted
# Summary of the method: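 Cells were plated overnight at 37 °C, exposed to compound titrations plus EC10 NKH 477 for 3 h, then given CCF4 dye for 2 h at room temperature. Blue/green (460/530 nm) ratio was converted to %Activity and AC50 values calculated.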
# Potency is read from the fitted curve at half-maximal effect; tags tell the direction and shape of the fitted curve.
SMILES,"activity change, negative = inhibition",Potency
COC(=O)CSc1nnc(CNC(=O)c2ccc(OC)cc2OC)n1C,inconclusive: 1.03%,–
CC(=O)N1CCCc2cc(S(=O)(=O)NC(C(=O)NC(C)c3ccccc3)C(C)C)ccc21 (centres undefined),inconclusive: -9.99%,–
CC(C)N1C(=O)CCC1C(=O)NCCc1ccc(Cl)cc1 (centres undefined),inactive: -3.71%,–
Cc1ccccc1Cn1cc(/C=N/n2cnnc2)c2ccccc21,–,"inconclusive: 3.98 µM [rising, partial curve]"
Cc1cc(=O)oc2cc(OCC(=O)OCC(=O)NCc3ccc4c(c3)OCO4)ccc12,inactive: 0.845%,–
Cc1cc(C)n(C(=O)CCCC(=O)n2nc(C)cc2C)n1,–,"inconclusive: 10 µM [rising, single point]"
CCC(CC)C(=O)Nc1c2c(nn1-c1ccc(OC)cc1)CS(=O)C2 (centres undefined),inactive: -4.48%,–
CCCc1nc2oc3cc(OC)ccc3c(=O)c2c(=O)n1Cc1ccco1,–,"inconclusive: 15.8 µM [rising, partial curve]"
Cc1ncc(CO)c(CO)c1O,inconclusive: -5.66% [at 17.1 µM],–
COC(=O)c1cc(NCc2ccc3c(c2)OCO3)ccc1N1CCOCC1,–,"inconclusive: 1.58 µM [rising, full curve, poor fit]"
CCCn1c(-c2ccc(F)cc2)nc2c(NCCN(CC)CC)nc(C)nc21,inactive: 9.32%,–
CCn1c(SCC(=O)c2ccccc2)nc2c(c1=O)SC(C)C2 (centres undefined),–,"inconclusive: 12.6 µM [rising, partial curve]"
C=CCc1ccccc1OCC(O)CNC (centres undefined),inconclusive: -9.38%,–
COc1ccc(-n2c(Cc3cccn3C)nnc2SCC(=O)N2CCCc3ccccc32)cc1,inactive: -12.2%,–
CCNc1ncc2nc(-c3ccccc3)c(=O)n(C)c2n1,–,"inconclusive: 2 µM [rising, full curve]"
Cc1ccn2cc(CCNC(=O)c3ccc(Br)o3)nc2c1,–,"inconclusive: 10 µM [rising, partial curve]"
Cn1cc(CC(=O)NCCCN2CCCC2=O)c2ccccc21,inactive: -1.75%,–
CCn1c(=N)n(CC(=O)C23CC4CC(CC(C4)C2)C3)c2ccccc21,inactive: 3.73%,–
COc1ccc(-c2cc(NCCc3ccncc3)n3ncnc3n2)cc1,–,"inconclusive: 10 µM [rising, partial curve]"
COc1cccc(OCC(=O)Nc2ccc(OC)c(OC)c2)c1,–,"inconclusive: 0.0316 µM [rising, full curve, poor fit]"
Cc1ccc(C(C(=O)NCc2ccco2)N(Cc2ccco2)C(=O)CNC(=O)c2ccco2)cc1 (centres undefined),inconclusive: -15.5%,–
CCOC(=O)c1c(C)[nH]c(C(=O)OCC(=O)Nc2cc(C)ccc2OC)c1C,inconclusive: 20.7%,–
CCOc1ccc(CCNS(=O)(=O)c2c(C)n[nH]c2C)cc1OCC,inconclusive: -1.73%,–
c1ccc(Cn2c(CNc3nc4ccccc4n3CCN3CCOCC3)nc3ccccc32)cc1,inconclusive: -4.72%,–
Cc1ccc(N2CCN(C(=O)CNS(=O)(=O)c3ccc(Br)s3)CC2C)cc1 (centres undefined),inconclusive: -10.1%,–
COc1ccccc1CNc1ncncc1-c1ccc2c(c1)OCO2,–,"inconclusive: 12.6 µM [rising, partial curve]"
COc1cccc(C2NC(=O)NC(O)(C(F)(F)F)C2C(=O)c2cccnc2)c1OC (centres undefined),–,"inconclusive: 0.00398 µM [falling, full curve, poor fit]"

SMILES,"activity change, negative = inhibition",Potency
CN1CCc2cc(Cl)c(O)cc2[C@@H](c2ccccc2)C1,–,"inconclusive: 15.8 µM [falling, partial curve, poor fit]"
COC(=O)c1c(NC(=O)C2CC2)sc2c1CCCC2,–,"inconclusive: 15.8 µM [rising, single point]"
Clc1ccccc1-c1nc(N2CCNCC2)c2ccccc2n1,inconclusive: 7.64%,–
Cn1c(=O)n(C)c(=O)n(CC(=O)N2CCCCC2)c1=O,–,"inconclusive: 15.8 µM [rising, single point]"
COc1ccc(C(=O)OCCN2C(=O)c3ccccc3C2=O)cc1OC,–,"inconclusive: 3.16 µM [rising, partial curve]"
COc1ccc(CNc2nc3nc(C)c(Cl)c(C)n3n2)cc1OC,–,active: 12.6 µM
COc1cccc(/C=N/n2c(CO)nc3ccccc32)c1OC,–,"inconclusive: 12.6 µM [rising, partial curve]"
COc1cc(C(=O)COC(=O)Cc2cnc3sccn23)cc(OC)c1OC,–,"inconclusive: 10 µM [rising, single point]"
COCn1c(COc2ccccc2)nc2ccccc21,–,"inconclusive: 0.02 µM [rising, single point]"
CCNC(=O)c1cc2c(=O)n3cccc(C)c3nc2n(Cc2ccc(C)cc2)c1=N,–,active: 1 µM
COc1ccc(-c2nc3cnc(N4CCN(C)CC4)nc3n(Cc3cccs3)c2=O)cc1,–,"inconclusive: 0.398 µM [rising, full curve]"
CCC(=O)Nc1ccc(NC(=O)CN2CCCC(C)C2)c(Cl)c1 (centres undefined),inactive: -7.15%,–
Cc1nn(Cc2ccc(Cl)cc2Cl)c(C)c1NC(=O)c1nc2n(n1)C(C(F)F)CC(C)N2 (centres undefined),–,"inconclusive: 12.6 µM [falling, partial curve]"
COC(=O)C1=CN(CC2CCCO2)C=C(C(=O)OC)C1c1ccsc1 (centres undefined),–,"inconclusive: 12.6 µM [rising, single point]"
CCn1c2ccccc2c2nnc(SCC(=O)NC(CC(C)C)C(=O)OC)nc21 (centres undefined),–,active: 7.94 µM
CCOC(=O)c1c(O)[nH]c(=O)c(CC)c1C,inactive: 7.28% [at 7.6 µM],–
Nc1ccc(O)c([N+](=O)[O-])c1,inactive: -8.83%,–
O=S(=O)(/N=S1/CC=CCN1S(=O)(=O)c1ccccc1)c1ccccc1 (centres undefined),–,"inconclusive: 10 µM [falling, single point]"
Cc1ccc(N(Cc2ccco2)C(=O)c2cccc(S(=O)(=O)N(C)C)c2)cc1,inconclusive: 32.1%,–
CCCS(=O)(=O)N1CCC(C(=O)N2CCOCC2)CC1,inconclusive: 10.7%,–
Cn1c(CCCCCN)nc2ccccc21,inactive: -10.3%,–
Cc1ccc2c(c1)c1c(n2CC(O)Cn2nc(C)c(Br)c2C)C(=O)CCC1 (centres undefined),inactive: 0.275%,–
O=C1Nc2ccccc2OC1CC(=O)N1CCN(c2cccc(C(F)(F)F)c2)CC1 (centres undefined),inconclusive: -28.5%,–
CCOC(=O)c1c(NC(=O)CNCC(O)CO)sc(C)c1C (centres undefined),–,"inconclusive: 10 µM [rising, single point]"
O=C(O)c1cc2nc(-c3ccc(F)cc3)cc(C(F)(F)F)n2n1,–,"inconclusive: 10 µM [rising, single point]"
COc1ccc(OC)c(-c2cc(C(=O)Nc3c(C)nn(Cc4ccccc4C)c3C)no2)c1,–,active: 3.16 µM
CC1=CC(C)(C)Nc2ccc(OC(=O)c3cccnc3)cc21,–,"inconclusive: 3.98 µM [rising, partial curve]"

SMILES,"activity change, negative = inhibition",Potency
COc1ccc(-c2nc3cnc(OC)nc3n(Cc3cccc(OC)c3)c2=O)cc1,–,active: 2.51 µM
COC(=O)c1ccc(-n2nnnc2SCc2ccccc2OC)cc1,–,"inconclusive: 25.1 µM [rising, single point]"
COc1cccc(-c2nn3c(-c4cccc(C)c4)nnc3s2)c1,inconclusive: 7%,–
CCc1[nH]nc2c1C(c1cccnc1)C(C#N)=C(N)O2 (centres undefined),inconclusive: 5.45%,–
COCCNc1nc(-c2cccc(OC)c2)nc2ccccc12,–,"inconclusive: 12.6 µM [rising, partial curve]"
COc1ncc2nc(-c3ccccc3)c(=O)n(CCc3ccccc3)c2n1,–,active: 12.6 µM
CCn1cc(C(=O)N2CCCC2)c(=O)c2cc(S(=O)(=O)N(C)C)ccc21,inactive: -0.435%,–
CCc1ccc2[nH]c(=O)c(CN(Cc3ccc(OC)cc3)Cc3nnnn3CCOC)cc2c1,–,"inconclusive: 3.98 µM [rising, single point]"
CCc1nc(C)c(C#N)c2cc(OC)c(OC)cc12,–,"inconclusive: 0.398 µM [rising, full curve]"
Nc1nnc(N2CCCCC2)s1,inactive: 2%,–
CNC(=O)[C@H](C)[C@@H]1C[C@@]1(C)[C@@H](NC(=O)OCc1ccccc1)c1ccccc1,inactive: -6.81%,–
Cc1ccc2c(CN3CCN(S(=O)(=O)c4ccc5c(c4)OCCO5)CC3)cc(=O)oc2c1C,inconclusive: 4.56%,–
COc1cccc(Cn2c(=O)c(-c3ccc(Cl)cc3)nc3cnc(N4CCOCC4)nc32)c1,–,"inconclusive: 0.631 µM [rising, full curve]"
COc1cc(C(=O)Nc2nnc(CC(=O)N3CCOCC3)s2)cc(OC)c1OC,inconclusive: 24.6%,–
COc1cc(C(=O)NCc2nnc(SCC(=O)N3CCc4ccccc43)o2)cc(OC)c1OC,inconclusive: 14.8%,–
COCCOC(=O)c1c(C)oc2ccc(OCc3cc(C(=O)OC)oc3C)cc12,–,"inconclusive: 15.8 µM [rising, single point]"
N#Cc1ccc(C23CC4CC(CC(C4)C2)C3)[nH]c1=O,inconclusive: 21.2%,–
N=c1oc2ccc3ccccc3c2cc1-c1nnc2n1CCCCC2,–,"inconclusive: 10 µM [rising, partial curve]"
Cc1ccc(C(=O)N2CCN(c3cccc(Cl)c3)CC2)cc1C,inactive: -13.4%,–
Cn1c(C[C@@H](O)c2nc3ccccc3n2C)nc2ccccc21,inactive: 1.02% [at 7.6 µM],–
CN1C(=O)C(O)(CC(=O)c2cccnc2)c2ccccc21 (centres undefined),inconclusive: 8.54% [at 7.6 µM],–
COCCNc1cc(-c2ccccc2C(F)(F)F)ncn1,inconclusive: -2.98%,–
CC(C)n1nnnc1SCC(=O)NCc1cccs1,–,"inconclusive: 5.01 µM [falling, single point]"
Cn1c(=O)[nH]c(=O)c2c1nc(CN1CCOCC1)n2CCCc1ccccc1,inconclusive: 12.2%,–
Cc1cc(Nc2ccccc2F)n2nc(C)nc2n1,–,"inconclusive: 10 µM [rising, single point]"
